Measurements: PubChem BioAssay (Tox21)
“And” between values parts separate entries of the source, which are not always exact repeats. Equal values may be shown once. The shares of active, inactive and inconclusive entries below differ from those in the screen. A potency beside an inconclusive call is a rough fit, not a confirmed value. The source made the active and inactive calls. Unless noted, calls come from the whole dose curve; as a rule, active = well fitted inhibition curve with a large enough effect in the signal ratio in the repeat runs; inconclusive = weak or mixed curves, or effect the other way; inactive = flat fitted curve, though single readings scatter; the % refers to the signal ratio.

Test: qHTS assay for small molecule agonists of the p53 signaling pathway (AID 651631; calls by dose curve; note: nearly all actives have a fitted effect of over 15% in size)
Conditions: HCT-116 p53RE-bla reporter, beta-lactamase FRET ratio, 16 h; activation: at 73.3 µM (top of the series) unless noted
In short: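 HCT-116 p53RE-bla reporter line, 16 h compound treatment at 37 °C, then fluorescence after 2 h with B/G FRET substrate.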
% is set by controls: 0 for no effect and ±100 for the full control effect; potency is the fitted concentration of half-maximal effect; tags give direction and shape of the fitted curve or compound fluorescence and quenching.

Row | SMILES | activation | Potency
1 | COCC(C)OC(C)=O (stereo not drawn) | inconclusive: 11.2% | –
2 | CCCCCCCCCOS(=O)(=O)O | – | inactive
3 | NCC[C@H](O)C(=O)N[C@@H]1C[C@H](N)[C@@H](O[C@H]2O[C@H](CN)[C@@H](O)[C@H](O)[C@H]2O)[C@H](O)[C@H]1O[C@H]1O[C@H](CO)[C@@H](O)[C@H](N)[C@H]1O | inconclusive: -2.39% | –
4 | CCCCCCCCCCOc1cc2c(=O)c(C(=O)OCC)c[nH]c2cc1OCC | – | inconclusive: 0.119 µM [activator, single point]
5 | CC[N+](C)(CC)CC | – | inactive
6 | O=C1C(N(CO)C(=O)NCO)N(CO)C(=O)N1CO (stereo not drawn) | – | inactive
7 | CC1=C(C/C=C(\C)CCC[C@H](C)CCC[C@H](C)CCCC(C)C)C(=O)c2ccccc2C1=O | – | inconclusive: 29.8 µM [rising, single point]

Test: qHTS assay for small molecule disruptors of the mitochondrial membrane potential - cell viability (AID 720634; calls by dose curve; note: nearly all actives have a fitted effect of over 20% in size)
Conditions: HepG2 viability, ATP luminescence (CellTiter-Glo), 1 h; series mostly up to 83.2 µM
In short: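 ATP-based luminescent viability readout (CellTiter-Glo, 30 min, room temperature) in HepG2 cells multiplexed with the m-MPI membrane potential dye; compound exposure lasted 1 hr at 37 C.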

Row | SMILES | Potency
8 | NCC[C@H](O)C(=O)N[C@@H]1C[C@H](N)[C@@H](O[C@H]2O[C@H](CN)[C@@H](O)[C@H](O)[C@H]2O)[C@H](O)[C@H]1O[C@H]1O[C@H](CO)[C@@H](O)[C@H](N)[C@H]1O | inactive
9 | CC(C)OC(=O)C(C(=O)OC(C)C)=C1SC=CS1 | inconclusive: 23.7 µM [cytotoxic, partial curve, poor fit]
10 | c1ccc2c(c1)[nH]c1ccccc12 | inconclusive: 26.8 µM [cytotoxic] and inconclusive: 54.5 µM [cytotoxic, partial curve, poor fit]
11 | COC(=O)c1ccc(C=O)cc1 | inactive

Test: qHTS assay for small molecule disruptors of the mitochondrial membrane potential (AID 720635)
Conditions: HepG2 mitochondrial membrane potential, Mito-MPS dye ratio; ratio activity, negative = MMP loss: at 83.2 µM (top of the series) unless noted
In short: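 HepG2 cells exposed to compound 1 hr at 37C, then Mito-MPS dye 30 min. Ratio read of aggregate (540/590 nm) versus monomer (490/535 nm) fluorescence.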

Row | SMILES | ratio activity, negative = MMP loss | Potency
12 | CCCCCCCCCOS(=O)(=O)O | inconclusive: 23.7% | –
13 | NCC[C@H](O)C(=O)N[C@@H]1C[C@H](N)[C@@H](O[C@H]2O[C@H](CN)[C@@H](O)[C@H](O)[C@H]2O)[C@H](O)[C@H]1O[C@H]1O[C@H](CO)[C@@H](O)[C@H](N)[C@H]1O | – | inactive
14 | CN(C)CCc1c[nH]c2ccc(CS(=O)(=O)N3CCCC3)cc12 | – | inactive
15 | CCCCCCCCCCOc1cc2c(=O)c(C(=O)OCC)c[nH]c2cc1OCC | – | inconclusive: 11.9 µM [inhibitor, single point]
16 | FC(F)(F)C(F)(F)C(F)(F)C(F)(F)C(F)(F)C(F)(F)C(F)(F)C(F)(F)C(F)(F)C(F)(F)F | inactive: 21.5% [at 8.08 µM] | –
17 | O=C(O)/C=C/c1ccccc1 | inconclusive: 20.1% | –
18 | C=C(C)C(=O)OC | – | inactive
19 | CC(C)OC(=O)C(C(=O)OC(C)C)=C1SC=CS1 | – | inconclusive: 13.3 µM [inhibitor]
20 | O=Cc1cc2ccccc2o1 | – | inactive
21 | CC[N+](C)(CC)CC | – | inconclusive: 0.243 µM [activator, full curve]
22 | O=C1Nc2ccccc2C1=O | – | inconclusive: 76.3 µM [rising, partial curve, poor fit]
23 | Cc1ccc(O)c([N+](=O)[O-])c1 | – | inactive
24 | O=C1C(N(CO)C(=O)NCO)N(CO)C(=O)N1CO (stereo not drawn) | inconclusive: 8.01% | –
25 | CC1=C(C/C=C(\C)CCC[C@H](C)CCC[C@H](C)CCCC(C)C)C(=O)c2ccccc2C1=O | – | inconclusive: 16.8 µM [inhibitor, partial curve, poor fit]
26 | O=C1NC(=O)C(c2ccccc2)(c2ccccc2)N1 | – | inactive and inconclusive: 61.1 µM [inhibitor]
27 | O=C(O)C(=O)Nc1cccc(-c2nn[nH]n2)c1 | – | inactive
28 | COC(=O)c1ccc(C=O)cc1 | – | inconclusive: 61.2 µM [inhibitor, partial curve]
29 | Cc1ccc(O)c(C(=O)c2ccccc2)c1 | – | inconclusive: 61.8 µM [inhibitor]
30 | CC1(C)CC(N)CC(C)(C)N1 | – | inconclusive: 0.0122 µM [activator, full curve, poor fit]
31 | NC(=O)c1cn(Cc2c(F)cccc2F)nn1 | – | inactive
32 | C=CC(C)(O)CC/C=C(\C)CC (stereo not drawn) | inconclusive: 12.7% | –
33 | C/C=C1\C(=O)C[C@H]2[C@@H]3CCC4=CC(=O)CC[C@]4(C)[C@H]3CC[C@]12C | – | inconclusive: 16.9 µM [activator, partial curve, poor fit]
